Data taken from the supplement of paper PMC3334620.
In all, about 33,000 sequences were measured (“E-score (-0.5 to 0.5)”: median about -0.012, highest 2% from about 0.27 on). The list shows a part of the results.

Biological target: T1, Vhr1 (UniProt P40522)
T1 sequence: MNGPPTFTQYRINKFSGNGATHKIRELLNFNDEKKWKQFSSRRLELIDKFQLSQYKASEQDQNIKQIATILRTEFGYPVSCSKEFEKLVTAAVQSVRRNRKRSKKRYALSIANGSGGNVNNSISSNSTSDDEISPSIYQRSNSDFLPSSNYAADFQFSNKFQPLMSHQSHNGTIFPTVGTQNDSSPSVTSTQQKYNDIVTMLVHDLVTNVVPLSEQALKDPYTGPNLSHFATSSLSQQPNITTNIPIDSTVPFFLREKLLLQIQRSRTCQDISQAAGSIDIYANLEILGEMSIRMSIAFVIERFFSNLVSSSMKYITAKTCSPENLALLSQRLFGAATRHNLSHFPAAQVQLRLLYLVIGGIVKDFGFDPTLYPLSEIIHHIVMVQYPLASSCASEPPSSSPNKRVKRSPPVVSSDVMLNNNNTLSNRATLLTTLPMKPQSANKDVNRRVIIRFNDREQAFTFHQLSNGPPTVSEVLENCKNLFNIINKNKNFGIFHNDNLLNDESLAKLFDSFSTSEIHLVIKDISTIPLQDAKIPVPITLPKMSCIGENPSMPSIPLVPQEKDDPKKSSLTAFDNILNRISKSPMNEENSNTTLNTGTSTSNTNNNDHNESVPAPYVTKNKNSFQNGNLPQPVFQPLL
Assay: PBM E-score (8-mer binding enrichment) (E-score (-0.5 to 0.5)); higher = stronger / more preferred TF binding; most listed sequences are background and not binding sites
Conditions: protein concentration: 200 nM; construct: GST-full length
Procedure, shortened: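 The E-score, a modified Wilcoxon-Mann-Whitney statistic, was computed by the Universal PBM Analysis Suite for every ungapped eight-base word pooled with its reverse complement. Scans behind it were normalised with masliner after bound GST-tagged yeast transcription factors were detected with fluorescent anti-GST. The proteins, at about 100-200 nM, had been applied to universal all-10-mer Agilent arrays made double-stranded by primer extension.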

Sequence	PBM E-score
AGACGGAG	0.0828
GATATGAA	-0.101
CACAGCGA	0.226
CCGTTACC	-0.017
ACCGGTTG	-0.0863
CGTCTCTC	0.0531
ACTCTTCA	0.131
CACTAATG	0.105
ACCAGTCT	0.0104
GTGACGCA	-0.126
AAGTATAC	0.00355
ACGTCTGG	-0.0808
ACTCCCCC	-0.107
ACTTGAAC	-0.251
ACGTCGTG	0.0208
CCCCACAG	-0.0855
GATCTACC	0.182
GTTCCTCA	-0.255
AGCAATAG	-0.0838
AACATACA	-0.0835
CGGCTTAA	0.0419
ACCGTGCG	0.00367
GTAGGCAA	-0.107
AGAGGCTA	-0.108
CAGTCATG	0.406

Sequence	PBM E-score
CAATACTA	0.0633
AACGACTT	-0.216
CTTAGAAG	-0.251
AGCGTATG	-0.0585
GACTCCTA	0.384
AGCATCGC	-0.0938
AAACGTTG	-0.114
CCCGGGTA	0.105
CATTCTAC	-0.00941
CGTAGCTA	-0.0465
AATAATCC	-0.00265
GTACCTAA	-0.0816
ACCCGCCC	0.428
AACTCTGG	-0.0375
CTGGCTAC	0.0914
CGGGCTGC	0.112
GATTTATA	0.117
AACCCTGC	-0.164
ACAATCCT	-0.0131
CACATATG	0.137
ATGTGTCA	0.143
AGTTTCCA	-0.151
ATTGCTGG	-0.0562
ACGTCTTG	-0.244
TATCCACA	0.0724

Sequence	PBM E-score
CTATGGAC	-0.00601
AGCTATAG	-0.337
CGACTACA	0.272
GGGGGTAC	0.147
AGCAAAGA	-0.179
GAAATTTC	-0.369
AGGACCGC	-0.164
GAGTACTA	0.122
GCAAGCGA	0.0938
CGACAACC	-0.0275
AAGGGATA	-0.00957
AACCAAGA	0.112
CAGCTCGC	0.113
AGTTGAAT	0.0869
AAAGAGCT	-0.205
AATTTCTC	-0.127
TCCACCAA	0.0925
ATGGACTG	-0.0399
CTGAAAGC	0.0431
AGTGGCAA	-0.0529
ATAAGTCG	0.0638
AACCCTCC	-0.129
GGGTAGGA	-0.108
CTAAAGGA	-0.156
CCGAACGG	-0.0149

Sequence	PBM E-score
CTCCACAA	0.167
GCCCAAAA	-0.158
ATTTTTTG	-0.193
CGTGCGCC	0.102
ATGTGCGA	0.0627
GCGGATAC	0.221
ATTGGTCC	-0.0847
CACCAAGA	0.0345
ATGGCGGA	-0.0276
AACGTTGG	0.0188
AGGAGACT	0.0194
CACGCTCA	0.137
ATCGCACG	-0.0779
GAGCGATC	-0.132
TCGGCAAA	-0.101
AAGCGCGA	0.0906
GACATAGC	-0.149
CTTCCATC	-0.0671
GATCTTGC	0.0151
CGACCAGA	0.0575
ATCAGTTG	0.209
ATAACCCC	0.0677
CAGTACTA	0.167
CCGTGTAC	0.141
ACCAAGGA	0.0223

Sequence	PBM E-score
ATCGGGGC	-0.182
AATAGACT	0.102
ACTCTCCC	0.194
AATTCCTC	-0.0821
CCTATATC	0.0207
GTCGTGGA	-0.0253
ACATGAGT	0.279
ACTTGAGC	-0.154
GATTTTAC	-0.0634
GACGAAGC	-0.047
GGAACGAC	-0.138
CATCCCCC	-0.0872
CGTCCGAC	-0.142
ATATAGTA	0.202
GCCGCGAA	-0.125
CTAATAGA	0.032
ACAAGACC	-0.231
AAGTAGAA	-0.177
ACCAGGAG	0.00869
CGAAATAG	-0.166
CTCGAAGC	-0.156
TCTGCGCA	-0.115
CTCATAAG	0.145
AGAGGTAC	-0.183
CGGGGGAG	-0.0972

Sequence	PBM E-score
TGCACTAA	0.0186
AGATTCGG	-0.0676
AGCACATC	0.228
GACGGATA	0.104
ATCGCTTA	-0.193
TCCGATAA	-0.193
AGTGGATA	0.0901
GAGTATGA	0.228
ACTATTGA	0.261
CTGAATAA	0.0438
TAATTATA	0.223
GGCGAAGA	-0.152
AGACGGGG	0.012
GTCGTTAA	-0.257
CCCAAAAC	0.0767
AGCCCCTC	0.0759
CATTATGA	0.0974
CACTAGTG	0.0929
CCAGCTTC	0.0649
CGCACTAC	-0.0416
CCCCTACG	-0.139
CACGGTAG	-0.0365
ACCACTTG	-0.00054
CAAGGATA	0.117
ACACTACC	0.0417

Sequence	PBM E-score
TACCTCCA	0.0333
AGTGCTAA	0.0517
GTCAGCCA	0.183
AGGGATTG	-0.0704
GCGCGGTA	0.175
TCTGAGCA	-0.0423
ACCCTATC	0.135
GAGACGTA	0.0377
ATTTGGAG	-0.19
ACATTAAA	-0.102
CCTGTATA	0.0499
CGTACTCC	-0.0124
CCTATTTC	-0.104
ACCGATCG	0.0571
AGTCATAT	0.421
CGACAGGA	0.0413
AAGCTTAG	-0.0364
TGATTTAA	0.229
AAAGTCTC	-0.405
GCAATTGC	-0.0693
ACAGCGAG	-0.0186
CCACGTGA	-7e-05
ATATAGGC	-0.0174
ACCGAAAA	0.0291
CAACAAGC	0.152

Sequence	PBM E-score
AACCTTAA	-0.138
GGGGCTAA	-0.205
GGGTGCTA	0.0335
CCTCTCGA	-0.142
ATGCTCTG	-0.0683
AGCATCCG	-0.0745
CAATGTTC	0.0349
GGATTGTA	-0.158
ACGGCGCC	-0.156
AACGTGGG	-0.156
ATCGCACA	-0.0093
GCGCATGA	0.0938
CATGCACA	0.2
CAACCCTG	0.15
ACCTACGT	-0.0787
GGGACTTA	-0.202
CTACGAAG	-0.0622
CAAACGCA	-0.0229
CATTGGAG	-0.0586
CGGTGCTA	-0.0557
CATCTAAC	-0.104
CATATTGA	-0.0191
AGCCCGGA	-0.0206
ATACATTC	0.0568
CTAGGCAA	-0.303

Sequence	PBM E-score
GACTTGCC	0.00249
AATGACAG	0.0197
ACAAGAGA	0.00534
CTCTGTCC	0.0395
CATCACGA	0.0697
AATGACTC	0.463
GTAACTAA	0.148
CGGGTGCA	-0.0321
CAGTGGGC	-0.0826
CAATGGCC	-0.229
GACATCAC	0.0237
CCCCTGCA	-0.11
ACACTAAA	0.238
AGCGCGTC	-0.0214
GCAGCACC	-0.0745
CGTTAGAA	-0.323
ACTTCCTA	0.0303
ACGGACCC	-0.0938
AGAGACAC	-0.0162
ACGTAAAT	-0.168
GCGAACCC	0.124
AGAAAACT	-0.114
CCATGTCC	-0.0534
CTGGGTCC	-0.143
AATGTCGT	-0.0667

Sequence	PBM E-score
GGCCGCAA	-0.0783
CGAACGTA	-0.0982
GTAGCTAC	0.0711
CCGCCTAG	0.059
AATGGTCC	0.0646
AGCAGTAG	-0.18
AAGCGCAA	-0.133
AGACCAGA	0.035
GATCCGCC	0.102
ACTGTGGA	0.124
AGGGAGGA	-0.25
ATTCCCTG	0.0764
CGCCTGAC	0.103
GTCGAGCA	-0.0945
AGACGACT	0.0884
GGATATCC	0.0435
GAATATCC	-0.189
ATTGCTAA	-0.0369
CACATTAG	-0.0421
CGGAACTA	0.0982
CGGTGGAA	-0.0952
GAAGATAA	-0.0175
CAAGTCAG	0.208
AACTTAAG	-0.163
AGGGAAAG	-0.212

Sequence	PBM E-score
ACGCAACT	-0.0458
CTTGGATC	0.0792
ATCTGCGA	0.121
CCCGATCG	0.0213
ATGGAGTC	0.433
GAACTGCC	-0.0452
GACCGATA	-0.0142
CTGCGAAA	-0.176
CGATCACC	0.147
ACGACTCT	0.261
AGCTGACT	0.413
CTGTAGTA	0.262
AGCACTAG	-0.105
GTTCATCA	0.15
CTGATATA	-0.062
GCAGATAC	-0.0735
CCGGCGTA	0.174
GATTTTTA	0.0137
CCTTCGAG	-0.288
AACGTGCA	-0.228
GATAGCCC	-0.22
CATCTGGA	0.0944
CTGTATCA	-0.0153
GAAGAATC	-0.1
CACTCTGA	0.00421

Sequence	PBM E-score
CAGTTCGA	0.00768
ATTGTTGG	0.169
AGTGGGAA	0.056
CGATACCA	0.138
ACATTCTA	-0.0337
AACCGTGC	0.0306
CCAATAGA	-0.0524
CGGTAGCC	0.223
CTGACTAA	0.359
GGGTATAA	-0.0128
GACTACCA	0.306
CCGGGTAA	0.0829
GAGGCTGC	0.00037
CGAGCCCC	-0.0595
ACCGCCGA	0.0789
CTTACAAA	-0.00387
CATCTTCG	-0.0538
GTCACTGA	0.0573
ATTCTGAG	-0.096
TATTGTCA	0.0335
ATTTCACA	0.0774
ACATGCCT	0.14
GGCAACAA	0.144
AGAGATTC	0.0168
AATTCCGA	-0.181

Sequence	PBM E-score
AGATCTGG	-0.165
GACAATGC	-0.162
GAGATCCA	0.002
CGCGATCC	0.0866
ACACGAAA	0.0417
GTCAATTA	-0.166
ACGGTGCG	0.136
TAGTTATA	0.00574
AGTAGCAA	-0.108
CAAAACCC	0.0268
CGCGCCAC	0.109
AGACCCAA	-0.0169
CCAGCGTC	0.0588
CACTCATC	0.137
AGCAGCGC	-0.0886
GGTGAGTA	0.282
AAACAAGA	0.121
AGGACTTC	-0.126
GTGGAAAA	-0.21
GTGCGAAA	-0.0809
AGACCACG	-0.155
CTCTACCC	0.116
ACGGGGCC	-0.0737
CTTTAAGC	-0.0514
CTCGATCC	0.0979

Sequence	PBM E-score
CGACCAAC	-0.0668
AATACTAG	0.151
AAGATCTC	-0.0464
GGGAACAC	-0.0418
GATGGAGA	0.0458
CCTCCCTA	-0.0884
CTCAGCTC	-0.0284
ATGACAGC	-0.0467
GAGGAAGC	-0.151
GGTGGTAC	-0.101
TATTTCGA	0.132
AACCAACG	-0.0349
ACCCATGC	0.273
TCATCAGA	0.0944
AGACACCG	0.21
AACGGAGC	-0.14
GGCTGCCA	0.181
CCCCGTAC	-0.115
ACTCCCGG	0.0384
